# Screen size: about 39,000 compounds; about 220 (0.56%) showed activity. The list shows a part of the results.
# Test system: Escherichia coli K-12 BW25113
# Assay: relative growth (OD600 normalised to plate interquartile mean) (fraction); higher = less growth inhibition, active = 0.2 or less
# Details: 50 µM; LB; incubation time: overnight (16-24 h)
# 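Note: static incubation at 37 °C against the wild-type strain, values averaged over two biological replicates.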
row,Compound,relative growth
1,COc1ccccc1S(=O)(=O)N[C@@H]1C=C[C@@H](CC(=O)N2CCOCC2)O[C@@H]1CO,inactive: 0.937
2,C[C@@H]1CCCCO[C@@H](CN(C)C(=O)c2ccccc2)[C@H](C)CN([C@H](C)CO)C(=O)c2cc(NC(=O)Nc3ccc4c(c3)OCO4)ccc2O1,inactive: 1.04
3,O=C(NCC[C@H]1CC[C@H](NS(=O)(=O)c2cccc(F)c2)[C@H](CO)O1)C1CC1,inactive: 0.999
4,CC(C)NC(=O)N(C)C[C@@H]1Oc2ccc(NS(=O)(=O)c3ccc(F)cc3)cc2C(=O)N([C@H](C)CO)C[C@H]1C,inactive: 0.999
5,Cc1ccc(S(=O)(=O)N(C)C[C@@H]2OCCCC[C@H](C)Oc3ccc(NC(=O)Nc4ccc(F)cc4)cc3C(=O)N([C@H](C)CO)C[C@@H]2C)cc1,inactive: 0.987
6,C[C@@H]1CN([C@@H](C)CO)C(=O)c2cc(NC(=O)CCC(F)(F)F)ccc2O[C@@H](C)CCCCO[C@H]1CN(C)C(=O)Nc1ccccc1,inactive: 0.99
7,C[C@@H]1CN([C@H](C)CO)C(=O)c2cc(NS(C)(=O)=O)ccc2O[C@@H](C)CCCCO[C@@H]1CN(C)S(C)(=O)=O,inactive: 1
8,C[C@H](CO)N1C[C@H](C)[C@H](CN(C)C(=O)c2ccccc2F)Oc2ncc(C#Cc3ccncc3)cc2C1=O,inactive: 0.992
9,CCC[C@@H](O)C#Cc1cnc2c(c1)C(=O)N([C@H](C)CO)C[C@H](C)[C@H](CN(C)S(C)(=O)=O)O2,inactive: 0.993
10,C[C@H](CO)N1C[C@H](C)[C@@H](CN(C)Cc2ccc(C(=O)Nc3ccccc3N)cc2)Oc2ccc(NC(=O)Nc3cccc4ccccc34)cc2C1=O,inactive: 1.05
11,C[C@H]1CN([C@@H](C)CO)C(=O)Cc2cc(NC(=O)Nc3cccc4ccccc34)ccc2O[C@H]1CN(C)C(=O)Nc1ccccc1,inactive: 0.977
12,C[C@@H]1CCCCO[C@@H](CN(C)Cc2ccc3c(c2)OCO3)[C@@H](C)CN([C@@H](C)CO)C(=O)c2cc(NS(=O)(=O)c3ccccc3)ccc2O1,inactive: 1.02
13,CC(N)CCCC(C)(C)O.Cl (configuration not stated),inactive: 1.04
14,C[C@H]1CN([C@@H](C)CO)C(=O)c2cc(NS(=O)(=O)c3cn(C)cn3)ccc2O[C@@H]1CN(C)S(=O)(=O)c1ccccc1,inactive: 0.995
15,CC(C)C#Cc1cnc2c(c1)C(=O)N([C@@H](C)CO)C[C@@H](C)[C@@H](CN(C)S(=O)(=O)c1cn(C)cn1)O2,inactive: 1
16,O=C1C[C@]2(c3ccc([N+](=O)[O-])cc3)C(=O)N(Cc3ccccc3)c3cc(CO)ccc3[C@H]2N1CC12CC3CC(CC(C3)C1)C2,inactive: 0.983
17,C[C@@H]1CN([C@@H](C)CO)C(=O)c2cccc(NC(=O)c3ccc(-c4nccs4)cc3)c2O[C@H]1CN(C)Cc1ccc(C(=O)Nc2ccccc2N)cc1,inactive: 1.01
18,COc1ccc(CN(C)C[C@H]2OCCCC[C@@H](C)Oc3ccc(NC(=O)Cc4ccccc4)cc3C(=O)N([C@@H](C)CO)C[C@H]2C)cc1,inactive: 0.996
19,Cc1ccc(S(=O)(=O)N(C)C[C@H]2Oc3ccc(NS(=O)(=O)c4cn(C)cn4)cc3C(=O)N([C@@H](C)CO)C[C@H]2C)cc1,inactive: 1.02

row,Compound,relative growth
1,COCC#Cc1ccc2c(c1)O[C@H](CN(C)S(C)(=O)=O)[C@@H](C)CN([C@@H](C)CO)S2(=O)=O,inactive: 0.987
2,C[C@@H]1CN([C@@H](C)CO)C(=O)c2cc(NC(=O)Cc3cn(C)c4ccccc34)ccc2O[C@H]1CN(C)Cc1ccc(Oc2ccccc2)cc1,inactive: 1.01
3,C[C@@H]1CCCCO[C@H](CN(C)C(=O)Nc2ccc(F)cc2)[C@@H](C)CN([C@@H](C)CO)C(=O)c2cc(NC(=O)Nc3ccc(C(F)(F)F)cc3)ccc2O1,inactive: 1.01
4,Cc1ccc(S(=O)(=O)N(C)C[C@H]2Oc3ccc(NC(=O)CCN4CCOCC4)cc3C(=O)N([C@@H](C)CO)C[C@H]2C)cc1,inactive: 1.03
5,COc1ccc(CN(C)C[C@@H]2OCCCC[C@H](C)Oc3ccc(NC(=O)CCC(F)(F)F)cc3C(=O)N([C@H](C)CO)C[C@@H]2C)cc1,inactive: 0.958
6,C[C@@H]1CN([C@@H](C)CO)C(=O)c2cc(NC(=O)c3ccccc3)ccc2O[C@@H](C)CCCCO[C@H]1CN(C)Cc1ccc2c(c1)OCO2,inactive: 1.03
7,O=C(C[C@H]1CC[C@@H]2[C@H](COC[C@H](O)CN2C(=O)c2ccccc2F)O1)N1CCN(c2ccccc2)CC1,inactive: 0.978
8,O=C(O)C1=CCCNC1,inactive: 0.966
9,C[C@H]1CCCCO[C@H](CN(C)C(=O)CCC(F)(F)F)[C@@H](C)CN([C@@H](C)CO)C(=O)c2cc(NS(=O)(=O)c3ccc(F)cc3)ccc2O1,inactive: 1
10,C[C@@H]1CN([C@@H](C)CO)C(=O)Cc2cc(NC(=O)Cn3cnnn3)ccc2O[C@@H]1CN(C)C(=O)Nc1ccc(F)cc1,inactive: 1.01
11,CCCCCCc1ccc(O)cc1O.Nc1c2ccccc2nc2ccccc12,inactive: 0.591
12,Cc1ccc(S(=O)(=O)Nc2ccc3c(c2)C(=O)N([C@@H](C)CO)C[C@H](C)[C@H](CN(C)S(=O)(=O)c2ccc(F)cc2)OCCCC[C@H](C)O3)cc1,inactive: 1
13,COc1ccc(S(=O)(=O)N(C)C[C@@H]2OCCCC[C@H](C)Oc3ccc(NC(=O)Nc4ccc(F)cc4)cc3C(=O)N([C@H](C)CO)C[C@H]2C)cc1,inactive: 1.04
14,C[C@@H]1CN([C@H](C)CO)C(=O)c2cc(NC(=O)Cc3ccccc3)ccc2O[C@H]1CN(C)Cc1ccc(-c2ccccc2)cc1,inactive: 1.02
15,CC(=O)c1c(C)nn(CC(=O)O)c1C,inactive: 1
16,C[C@H](CO)N1C[C@H](C)[C@H](CN(C)C(=O)c2ccccc2)OCCCC[C@H](C)Oc2ccc(NC(=O)c3ccccc3)cc2C1=O,inactive: 0.996
17,C[C@@H]1CN([C@H](C)CO)C(=O)c2cc(NS(=O)(=O)c3ccc(F)cc3)ccc2O[C@H]1CN(C)C(=O)Nc1ccc(C(F)(F)F)cc1,inactive: 1.01
18,CC1(C)S[C@@H]2[C@H](NC(=O)[C@H](NC(=O)N3CCNC3=O)c3ccccc3)C(=O)N2[C@H]1C(=O)O,active: 0.0984
19,CCCCCCCCCc1ccc(OCCOCCOCCOCCOCCOCCOCCOCCOCCO)cc1,inactive: 0.996

row,Compound,relative growth
1,C[C@@H]1CN([C@H](C)CO)C(=O)Cc2cc(NC(=O)Nc3ccc(C(F)(F)F)cc3)ccc2O[C@@H]1CN(C)Cc1ccc(Cl)c(Cl)c1,inactive: 1.02
2,CC(C)c1ccc2oc3nc(N)c(C(=O)O)cc3c(=O)c2c1,inactive: 0.903
3,C[C@@H]1CCCCO[C@H](CN(C)Cc2ccc(Cl)c(Cl)c2)[C@@H](C)CN([C@@H](C)CO)C(=O)c2cc(NS(=O)(=O)c3ccc(F)cc3)ccc2O1,inactive: 0.97
4,C[C@@H]1CN([C@H](C)CO)C(=O)c2cc(NS(=O)(=O)c3ccc(Cl)cc3)ccc2O[C@@H](C)CCCCO[C@H]1CN(C)Cc1ccc(Cl)c(Cl)c1,inactive: 0.983
5,CC(C)NC(=O)Nc1ccc2c(c1)CC(=O)N([C@@H](C)CO)C[C@@H](C)[C@@H](CN(C)Cc1ccc(Oc3ccccc3)cc1)O2,inactive: 1.04
6,C[C@H](CO)N1C[C@H](C)[C@@H](CN(C)S(C)(=O)=O)Oc2c(NC(=O)Nc3ccc(C(F)(F)F)cc3)cccc2C1=O,inactive: 1
7,Cc1ccc(S(=O)(=O)Nc2ccc3c(c2)C(=O)N([C@@H](C)CO)C[C@H](C)[C@@H](CN(C)C(=O)NC2CCCCC2)OCCCC[C@@H](C)O3)cc1,inactive: 1.01
8,Nn1c(C(F)(F)F)n[nH]c1=S,inactive: 1.01
9,O=C(NC1(C(F)(F)F)Oc2cc(Cl)c(Cl)cc2O1)C1=C(N2CCOCC2)/C(=C/c2ccccc2)CC1,inactive: 0.595
10,Cc1noc(C)c1S(=O)(=O)N(C)C[C@H]1Oc2ccc(NS(=O)(=O)c3cn(C)cn3)cc2CC(=O)N([C@H](C)CO)C[C@@H]1C,inactive: 1.01
11,C[C@H]1CN([C@@H](C)CO)C(=O)Cc2cc(NC(=O)Nc3cccc4c3CCCC4)ccc2O[C@H]1CN(C)S(=O)(=O)c1ccc(Cl)cc1,inactive: 1.01
12,C[C@H]1CN([C@@H](C)CO)C(=O)CCCn2nncc2CO[C@@H]1CN(C)S(=O)(=O)c1ccc(Oc2ccccc2)cc1,inactive: 0.997
13,Cc1noc(C)c1NC(=O)Nc1ccc2c(c1)C(=O)N([C@@H](C)CO)C[C@@H](C)[C@H](CN(C)S(=O)(=O)c1cccs1)OCCCC[C@H](C)O2,inactive: 1
14,COc1ccc(NC(=O)N(C)C[C@@H]2OCCCC[C@H](C)Oc3ccc(NS(=O)(=O)c4c(C)noc4C)cc3C(=O)N([C@@H](C)CO)C[C@@H]2C)cc1,inactive: 0.934
15,C[C@H](CO)N1C[C@H](C)[C@H](CN(C)Cc2ccc(-c3ccccc3)cc2)Oc2ccc(NC(=O)Cc3ccccc3)cc2CC1=O,inactive: 1
16,COc1ccc(CN(C)C[C@H]2Oc3ccc(NS(=O)(=O)c4c(C)noc4C)cc3C(=O)N([C@@H](C)CO)C[C@@H]2C)cc1,inactive: 1.01
17,C[C@H]1CN([C@@H](C)CO)C(=O)Cc2cc(NC(=O)c3ccncc3)ccc2O[C@H]1CN(C)C(=O)NC1CCCCC1,inactive: 1.01
18,C[C@H](CO)N1C[C@H](C)[C@@H](CN(C)Cc2ccc(Oc3ccccc3)cc2)Oc2ccc(NC(=O)Cn3cnnn3)cc2C1=O,inactive: 0.998
19,C[C@H]1CN([C@@H](C)CO)C(=O)c2cccc(NC(=O)NC3CCCCC3)c2O[C@@H]1CN(C)C(=O)Nc1ccc(C(F)(F)F)cc1,inactive: 0.766

# Source: the supplement of paper PMC9446081
